This is one part of the list. The main result of the screen is listed elsewhere. These columns were measured beside it and carry no call. For some of these results: Most of these compounds were active or inconclusive in the main read-out, so they are no random draw. Words in brackets tell the shape of the fitted curve; partial curves, single points and poor fits give uncertain potencies.
How the values were obtained:
[1] = qHTS drug screen for cell cycle checkpoint inhibitors in PARPi-resistant BRCA-mutant ovarian cancer cell lines. (AID 1963452); conditions: PEO1/OlaR viability, CellTiter-Glo luminescence, 96 h
Summary of the method: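 PEO1, PEO4 and PEO1/OlaR ovarian cancer cells, 600 per well, exposed 96 h at 37C to a dilution series. Viability read by CellTiter-Glo luminescence, normalized to DMSO and empty wells; activity summarized as Z-AUC.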

[2] = qHTS for identification of novel therapeutic agents for treatment of microphthalmiaassociated transcription factor (MiT) renal cell carcinoma (RCC) (AID 1963991); conditions: CellTiter-Glo, 48 h; for z-score: stronger effect = lower value;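 as to z-score: curves scaled with 100% = DMSO viability and 0% = empty wells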
Summary of the method: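 UOK109/UOK124/UOK145 (TFE3 fusions, three partners); 500 cells/well; MIPE v4.0, 1912 cpds, 11 conc.; 48 h, 37 C; CellTiter-Glo, 15 min RT; lum. Norm.: DMSO 100%, empty 0%.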

[3] = measured here: PEO1 parental viability
[4] = TFE3-RCC UOK109 viability, measured here: UOK109 Z-AUC
[5] = TFE3-RCC viability, measured here: UOK124 Z-AUC
[6] = TFE3-RCC viability, measured here: UOK124 cell viability
[7] = TFE3-RCC viability, measured here: UOK145 Z-AUC
[8] = TFE3-RCC viability, measured here: UOK145 cell viability
Tags tell the direction and shape of the fitted curve.

Compound | AC50 [1, 3] | AC50 ([1]; measured here: PEO4 viability) | z-score [2, 4] | z-score [2, 5] | AC50 [2, 6] | z-score [2, 7] | AC50 [2, 8]
COCCOC(=O)C1=C(C)NC2=C(C(=O)CC(c3ccccc3OC)C2)C1c1cccc(O)c1 (configuration not stated) | 19.5 µM [falling, single point] | 1.23 µM [falling, full curve, poor fit] | -1.07 | 0.108 | 18.7 µM [falling, partial curve] | -0.174 | 20.9 µM [falling, single point]
CN(C)CC[C@H](CSc1ccccc1)Nc1ccc(S(=O)(=O)NC(=O)c2ccc(N3CCN(Cc4ccccc4-c4ccc(Cl)cc4)CC3)cc2)cc1[N+](=O)[O-] | 24.5 µM [falling, single point] | 4.36 µM [falling, full curve] | -0.898 | 0.201 | 16.6 µM [falling, partial curve] | 0.213 | 16.6 µM [falling, partial curve]
c1ccc2c(CCNc3ccc(Nc4ccncc4)cc3)c[nH]c2c1 | 1.1 µM [falling, full curve] | 1.74 µM [falling, full curve] | -0.473 | 0.0561 | 33.2 µM [falling, single point] | -0.0695 | 20.9 µM [falling, partial curve]
Cc1cnc(Nc2cccc(CN3CCOCC3)c2)nc1Nc1cccc(S(=O)(=O)NC(C)(C)C)c1 | 7.76 µM [falling, partial curve] | 1.55 µM [falling, full curve] | -1.1 | -0.679 | 10.5 µM [falling, partial curve] | -0.652 | 14.8 µM [falling, partial curve]
c1ccc2c(Cc3c[nH]c4ccccc34)c[nH]c2c1 | 24.5 µM [falling, single point] | 17.4 µM [falling, partial curve] | 0.129 | 0.0241 | 26.4 µM [falling, single point] | -0.454 | 9.35 µM [falling, full curve]
O=c1[nH]nc(OCCCc2ccc(Cl)cc2)c(NCc2cccnc2)c1Br | 3.47 µM [falling, full curve] | 2.75 µM [falling, full curve, poor fit] | -0.0319 | -0.16 | 16.6 µM [falling, partial curve] | -0.139 | 23.5 µM [falling, partial curve]
O=C(NC1CCNCC1)c1[nH]ncc1NC(=O)c1c(Cl)cccc1Cl | 0.692 µM [falling, full curve] | 0.436 µM [falling, full curve] | -0.835 | -0.45 | 1.48 µM [falling, full curve] | -1.27 | 0.935 µM [falling, full curve]
N#CCNC(=O)c1ccc(-c2ccnc(Nc3ccc(N4CCOCC4)cc3)n2)cc1 | 13.8 µM [falling, partial curve] | 24.5 µM [falling, single point] | -0.229 | 0.121 | 16.6 µM [falling, partial curve] | -0.57 | 16.6 µM [falling, partial curve]
O=C(CCCCCCNC(=O)c1cnc(N(c2ccccc2)c2ccccc2)nc1)NO | 17.4 µM [falling, partial curve] | 17.4 µM [falling, partial curve] | 0.374 | -3 | 23.5 µM [falling, partial curve] | 0.509 | 13.2 µM [falling, partial curve]
COc1cc2nccc(Oc3ccc(NC(=O)Nc4cc(C)on4)c(Cl)c3)c2cc1OC | 2.19 µM [falling, full curve] | 3.09 µM [falling, full curve] | 0.383 | 0.827 | 20.9 µM [falling, partial curve] | 0.123 | 16.6 µM [falling, partial curve]
Cc1ccc(NC(=O)c2cccc(C(C)(C)C#N)c2)cc1Nc1ccc2ncn(C)c(=O)c2c1 | 7.76 µM [falling, partial curve] | 7.76 µM [falling, partial curve] | -0.248 | 0.123 | 20.9 µM [falling, partial curve] | 0.129 | 20.9 µM [falling, partial curve]
COc1cc(O)c2c(c1)C1OC1C[C@H](O)[C@H](O)C(=O)C=CC[C@H](C)OC2=O (some centres not stated) | 11 µM [falling, partial curve] | 3.09 µM [falling, full curve] | -0.298 | -0.0178 | 7.43 µM [falling, single point] | -0.36 | 16.6 µM [falling, partial curve]
CC(C)(C)c1cc(NC(=O)Nc2ccc(-c3cn4c(n3)sc3cc(OCCN5CCOCC5)ccc34)cc2)no1 | 17.4 µM [falling, partial curve, poor fit] | 19.5 µM [falling, partial curve] | 0.396 | -2.44 | 20.9 µM [falling, single point] | -1.65 | 14.8 µM [falling, partial curve]
OC(c1cc(C(F)(F)F)nc2c(C(F)(F)F)cccc12)C1CCCCN1 (configuration not stated) | 15.5 µM [falling, single point] | 27.5 µM [falling, single point] | -0.0523 | 0.217 | 29.6 µM [falling, partial curve] | -0.202 | 37.2 µM [falling, single point]
O=C(CC12CC3CC(CC(C3)C1)C2)Nc1cccc2nc(NCCNCCO)ccc12 | 24.5 µM [falling, single point] | 24.5 µM [falling, single point] | -0.124 | -0.112 | 33.2 µM [falling, single point] | -0.115 | 33.2 µM [falling, single point]
COc1cc2c(cc1-c1c(C)noc1C)ncc1[nH]c(=O)n([C@H](C)c3ccccn3)c12 | 1.95 µM [falling, full curve] | 1.38 µM [falling, full curve] | -0.92 | -0.384 | 16.6 µM [falling, partial curve] | -0.495 | 18.7 µM [falling, partial curve]
